These are yes or no findings as the source states them, for the method shown. For some assays here: In cells and extracts the contact can be indirect. Some binding calls cover weakened binding; strength is not graded here.
B1: Human VEGF-B167 (ligand, UniProt P49765-2 22-188, looked up)
chain: PVSQPDAPGHQRKVVSWIDVYTRATCQPREVVVPLTVELMGTVAKQLVPSCVTVQRCGGCCPDDGLECVPTGQHQVRMQILMIRYPSSQLGEMSLEEHSQCECRPKKKDSAVKPDSPRPLCPRCTQHHQRPDPRTCRCRCRRRSFLRCQGRGLELNPDTCRCRKLRR
notes: UniProt P49765 is printed for the VEGF-B167 peptides; Bought recombinant protein; source: bought: PeproTech (100-20B)

By UniProt entry, the sequences of proteins in these tests, tags left out. Where a name states a change or a piece, a line headed by the entry shows the natural chain unless it says otherwise. Residues count along the entry.
UniProt P11362: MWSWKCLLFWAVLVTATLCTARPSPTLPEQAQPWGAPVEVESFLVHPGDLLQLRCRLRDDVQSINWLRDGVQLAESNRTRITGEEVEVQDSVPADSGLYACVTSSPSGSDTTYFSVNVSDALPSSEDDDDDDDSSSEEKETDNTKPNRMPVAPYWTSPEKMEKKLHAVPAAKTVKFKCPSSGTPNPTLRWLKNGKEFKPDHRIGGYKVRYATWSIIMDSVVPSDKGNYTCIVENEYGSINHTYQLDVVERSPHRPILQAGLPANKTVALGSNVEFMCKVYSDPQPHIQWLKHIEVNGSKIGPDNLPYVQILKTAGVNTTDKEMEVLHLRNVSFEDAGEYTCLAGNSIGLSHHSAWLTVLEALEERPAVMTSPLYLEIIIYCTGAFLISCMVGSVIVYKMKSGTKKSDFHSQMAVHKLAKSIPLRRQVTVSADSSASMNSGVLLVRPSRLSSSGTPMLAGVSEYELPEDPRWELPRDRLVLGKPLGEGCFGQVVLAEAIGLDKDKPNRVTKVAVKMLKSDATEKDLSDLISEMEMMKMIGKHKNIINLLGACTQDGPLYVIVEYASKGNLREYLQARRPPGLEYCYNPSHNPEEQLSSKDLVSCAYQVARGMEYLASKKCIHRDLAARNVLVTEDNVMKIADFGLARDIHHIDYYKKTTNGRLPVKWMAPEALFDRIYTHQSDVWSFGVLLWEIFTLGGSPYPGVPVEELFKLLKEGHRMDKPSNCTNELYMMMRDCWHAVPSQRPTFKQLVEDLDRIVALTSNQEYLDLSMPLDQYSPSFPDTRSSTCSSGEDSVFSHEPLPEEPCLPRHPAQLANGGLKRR
wild-type FGFR1 overexpressed in HUVECs: residues 22-822 of P11362
UniProt P09038, residues 143-288: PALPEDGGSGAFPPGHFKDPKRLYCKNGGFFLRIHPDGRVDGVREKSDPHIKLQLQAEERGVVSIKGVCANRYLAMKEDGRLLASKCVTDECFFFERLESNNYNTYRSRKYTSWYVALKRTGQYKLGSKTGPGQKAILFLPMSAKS
UniProt P16092, residues 22-822: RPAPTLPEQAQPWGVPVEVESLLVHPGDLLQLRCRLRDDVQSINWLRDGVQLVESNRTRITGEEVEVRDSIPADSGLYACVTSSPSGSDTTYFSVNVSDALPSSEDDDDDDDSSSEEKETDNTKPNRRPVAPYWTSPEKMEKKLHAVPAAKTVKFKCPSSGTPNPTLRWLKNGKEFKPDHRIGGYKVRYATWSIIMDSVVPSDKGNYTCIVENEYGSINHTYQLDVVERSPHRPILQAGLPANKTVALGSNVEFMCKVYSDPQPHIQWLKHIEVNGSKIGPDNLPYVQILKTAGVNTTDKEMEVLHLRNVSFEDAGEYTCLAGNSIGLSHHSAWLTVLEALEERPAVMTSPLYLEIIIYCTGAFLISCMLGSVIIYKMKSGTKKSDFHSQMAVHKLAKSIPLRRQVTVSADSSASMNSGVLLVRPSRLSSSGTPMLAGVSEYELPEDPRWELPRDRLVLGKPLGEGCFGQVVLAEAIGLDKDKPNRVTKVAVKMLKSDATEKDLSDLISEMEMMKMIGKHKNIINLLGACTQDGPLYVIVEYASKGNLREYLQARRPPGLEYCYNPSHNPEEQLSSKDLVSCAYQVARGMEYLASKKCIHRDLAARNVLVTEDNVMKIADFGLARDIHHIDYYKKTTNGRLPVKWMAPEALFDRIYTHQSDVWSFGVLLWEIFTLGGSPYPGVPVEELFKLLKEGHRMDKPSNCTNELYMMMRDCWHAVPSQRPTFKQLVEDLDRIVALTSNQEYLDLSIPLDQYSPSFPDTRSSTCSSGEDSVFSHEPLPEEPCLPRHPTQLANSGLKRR
UniProt P17948, residues 27-1338: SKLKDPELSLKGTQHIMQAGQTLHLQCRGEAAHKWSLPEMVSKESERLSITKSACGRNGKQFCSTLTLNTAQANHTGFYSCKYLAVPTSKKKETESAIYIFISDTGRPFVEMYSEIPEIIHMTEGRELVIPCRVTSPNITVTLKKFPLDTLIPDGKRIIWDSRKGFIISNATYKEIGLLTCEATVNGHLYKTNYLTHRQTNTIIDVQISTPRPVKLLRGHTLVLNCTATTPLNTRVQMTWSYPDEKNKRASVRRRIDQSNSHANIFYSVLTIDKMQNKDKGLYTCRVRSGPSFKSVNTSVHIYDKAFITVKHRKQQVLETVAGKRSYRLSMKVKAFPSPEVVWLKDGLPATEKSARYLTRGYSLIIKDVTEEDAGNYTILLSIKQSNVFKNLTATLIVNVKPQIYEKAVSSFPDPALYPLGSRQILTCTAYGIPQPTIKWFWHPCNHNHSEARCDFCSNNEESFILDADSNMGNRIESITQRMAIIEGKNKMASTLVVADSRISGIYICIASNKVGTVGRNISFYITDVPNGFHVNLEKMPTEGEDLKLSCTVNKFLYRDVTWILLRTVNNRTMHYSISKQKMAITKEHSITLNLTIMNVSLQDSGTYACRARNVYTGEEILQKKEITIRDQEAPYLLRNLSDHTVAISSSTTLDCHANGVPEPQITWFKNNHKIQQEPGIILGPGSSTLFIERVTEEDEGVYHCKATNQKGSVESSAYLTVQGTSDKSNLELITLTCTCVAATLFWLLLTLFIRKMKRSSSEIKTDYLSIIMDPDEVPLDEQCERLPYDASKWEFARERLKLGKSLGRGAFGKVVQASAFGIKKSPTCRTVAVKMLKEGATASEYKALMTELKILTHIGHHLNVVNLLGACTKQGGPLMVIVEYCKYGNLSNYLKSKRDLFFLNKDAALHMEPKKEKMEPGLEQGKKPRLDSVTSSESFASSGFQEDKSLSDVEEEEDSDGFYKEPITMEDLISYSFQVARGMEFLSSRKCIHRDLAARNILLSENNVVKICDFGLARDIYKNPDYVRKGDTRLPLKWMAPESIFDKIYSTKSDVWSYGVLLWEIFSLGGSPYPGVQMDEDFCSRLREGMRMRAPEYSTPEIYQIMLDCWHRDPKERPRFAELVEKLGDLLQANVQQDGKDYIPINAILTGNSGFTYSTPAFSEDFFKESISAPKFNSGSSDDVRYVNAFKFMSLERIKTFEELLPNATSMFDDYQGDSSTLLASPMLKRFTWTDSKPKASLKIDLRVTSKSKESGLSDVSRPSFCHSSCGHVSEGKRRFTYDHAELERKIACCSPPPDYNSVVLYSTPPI

What was measured:
[1] = target: FGFR1 (endogenous in HRECs) (human (endogenous in HRECs)) (UniProt P11362); assay: proximity ligation; in situ PLA (Duolink II) in HRECs treated 30 min with VEGF-B or PlGF (50 ng/ml), fixed and permeabilised; rabbit anti-FGFR1 and mouse anti-VEGFR1
[2] = target: FGFR1-Fc (Z03223, Genscript) (UniProt P11362); assay: SPR; competition: VEGF-B immobilised at 6900 RU on CM5; FGFR1-Fc (200 nM) flowed with 6.25 nM BSA, FGF2 or PlGF, 10 µl/min; both purified
[3] = target: wild-type FGFR1 overexpressed in HUVECs (UniProt P11362); assay: co-IP; immunoprecipitation from HUVECs overexpressing wild-type or mutant FGFR1, with or without VEGF-B
[4] = target: FGFR1-Fc (Z03223, Genscript) (UniProt P11362); assay: ELISA; FGFR1-Fc (20 nM) captured by Fc specific anti-human IgG on the plate; biotinylated FGF2 or biotinylated VEGF-B peptides (200 nM) added for 2 h; streptavidin-HRP; both purified
[5] = target: FGF2 (PeproTech) (human) (UniProt P09038); assay: ELISA; competition: FGF2 coated (2.5 µg/ml); FGFR1-Fc (0.4 nM) incubated 1 h with VEGF-B or PlGF (3.125-100 nM) before the FGF2-coated wells; bound FGFR1-Fc detected by anti-human IgG-HRP; both purified
[6] = target: B1; assay: SPR; competition: VEGF-B immobilised at 6900 RU on CM5; FGFR1-Fc (200 nM) flowed with 6.25 nM BSA, FGF2 or PlGF, 10 µl/min; both purified
[7] = target: FGFR1-Fc (658-FR, R&D Systems) (UniProt P11362); assay: ELISA; competition: FGF2 coated (2.5 µg/ml); FGFR1-Fc (0.4 nM) incubated 1 h with VEGF-B or PlGF (3.125-100 nM) before the FGF2-coated wells; bound FGFR1-Fc detected by anti-human IgG-HRP; both purified
[8] = target: FGFR1 (mouse, endogenous) (mouse (endogenous in mouse tissues)) (UniProt P16092); assay: proximity ligation; in situ PLA on mouse retinae after intravitreal injection of VEGF-B or PlGF
[9] = target: FGFR1 (mouse, endogenous) (mouse (endogenous in mouse tissues)) (UniProt P16092); assay: co-IP; immunoprecipitation and Western blot from mouse brain, lung and heart, and from retinae after intravitreal injection of VEGF-B or PlGF

Molecule | binding [4] | other results
VEGFR1 (endogenous in HRECs) (from UniProt P17948 27-1338) (receptor) |  | binding [1]: binds
FGF2 (PeproTech) (from UniProt P09038 143-288) (ligand) |  | binding [2]: binds
VEGFR1 (in HUVECs) (from UniProt P17948 27-1338) (receptor) |  | binding [3]: binds
biotinylated FGF2 (BFF-H4117, Acro Biosystems) (from UniProt P09038 143-288) (ligand) | binds | 
FGFR1-Fc (658-FR, R&D Systems) (from UniProt P11362 22-376) (Fc fusion) |  | binding [5]: binds
FGFR1-Fc (Z03223, Genscript) (from UniProt P11362 22-376) (Fc fusion) |  | binding [6]: binds
CRCRCRRRSFLRCQGRGLEL (biotin (position not given)) [VEGF-B synthetic peptide 10] | binds | 
RGLELNPDTCRCRKLRR (biotin (position not given)) [VEGF-B synthetic peptide 11] | binds | 
SWIDVYTRATCQPREVVVPL (biotin (position not given)) [VEGF-B synthetic peptide 2] | binds weakly | 
QLVPSCVTVQRCGGCCPDDG (biotin (position not given)) [VEGF-B synthetic peptide 4] | binds weakly | 
GEMSLEEHSQCECRPKKKDS (biotin (position not given)) [VEGF-B synthetic peptide 7] | binds weakly | 
KKKDSAVKPDSPRPLCPRCT (biotin (position not given)) [VEGF-B synthetic peptide 8] | binds weakly | 
CPRCTQHHQRPDPRTCRCRC (biotin (position not given)) [VEGF-B synthetic peptide 9] | binds weakly | 
B1 |  | binding [7]: binds
VEGFR1 (mouse, endogenous) (receptor, UniProt P35969 23-1333) YGSGSKLKVPELSLKGTQHVMQAGQTLFLKCRGEAAHSWSLPTTVSQEDKRLSITPPSACGRDNRQFCSTLTLDTAQANHTGLYTCRYLPTSTSKKKKAESSIYIFVSDAGSPFIEMHTDIPKLVHMTEGRQLIIPCRVTSPNVTVTLKKFPFDTLTPDGQRITWDSRRGFIIANATYKEIGLLNCEATVNGHLYQTNYLTHRQTNTILDVQIRPPSPVRLLHGQTLVLNCTATTELNTRVQMSWNYPGKATKRASIRQRIDRSHSHNNVFHSVLKINNVESRDKGLYTCRVKSGSSFQSFNTSVHVYEKGFISVKHRKQPVQETTAGRRSYRLSMKVKAFPSPEIVWLKDGSPATLKSARYLVHGYSLIIKDVTTEDAGDYTILLGIKQSRLFKNLTATLIVNVKPQIYEKSVSSLPSPPLYPLGSRQVLTCTVYGIPRPTITWLWHPCHHNHSKERYDFCTENEESFILDPSSNLGNRIESISQRMTVIEGTNKTVSTLVVADSQTPGIYSCRAFNKIGTVERNIKFYVTDVPNGFHVSLEKMPAEGEDLKLSCVVNKFLYRDITWILLRTVNNRTMHHSISKQKMATTQDYSITLNLVIKNVSLEDSGTYACRARNIYTGEDILRKTEVLVRDSEAPHLLQNLSDYEVSISGSTTLDCQARGVPAPQITWFKNNHKIQQEPGIILGPGNSTLFIERVTEEDEGVYRCRATNQKGAVESAAYLTVQGTSDKSNLELITLTCTCVAATLFWLLLTLFIRKLKRSSSEVKTDYLSIIMDPDEVPLDEQCERLPYDASKWEFARERLKLGKSLGRGAFGKVVQASAFGIKKSPTCRTVAVKMLKEGATASEYKALMTELKILTHIGHHLNVVNLLGACTKQGGPLMVIVEYCKYGNLSNYLKSKRDLFCLNKDAALHMELKKESLEPGLEQGQKPRLDSVSSSSVTSSSFPEDRSVSDVEGDEDYSEISKQPLTMEDLISYSFQVARGMEFLSSRKCIHRDLAARNILLSENNVVKICDFGLARDIYKNPDYVRRGDTRLPLKWMAPESIFDKVYSTKSDVWSYGVLLWEIFSLGGSPYPGVQMDEDFCSRLKEGMRMRTPEYATPEIYQIMLDCWHKDPKERPRFAELVEKLGDLLQANVQQDGKDYIPLNAILTRNSGFTYSTPTFSEDLFKDGFADPHFHSGSSDDVRYVNAFKFMSLERIKTFEELSPNSTSMFEDYQLDTSTLLGSPLLKRFTWTETKPKASMKIDLRIASKSKEAGLSDLPRPSFCFSSCGHIRPVQDDESELGKESCCSPPPDYNSVVLYSSPPA |  | binding [8]: binds; binding [9]: binds
PVSQPDAPGHQRKVVSWIDV (biotin (position not given)) [VEGF-B synthetic peptide 1] | no binding (tested: 200 nM) | 
VVVPLTVELMGTVAKQLVPS (biotin (position not given)) [VEGF-B synthetic peptide 3] | no binding (tested: 200 nM) | 
CPDDGLECVPTGQHQVRMQI (biotin (position not given)) [VEGF-B synthetic peptide 5] | no binding (tested: 200 nM) | 
VRMQILMIRYPSSQLGEMSL (biotin (position not given)) [VEGF-B synthetic peptide 6] | no binding (tested: 200 nM) | 
